# Results reported in PubChem BioAssay AID588795 (National Center for Advancing Translational Sciences (NCATS), 2011).
# Out of some 390,000 compounds screened, about 1,400 (0.36%) were called active. The shares of active, inactive and inconclusive entries below differ from those in the screen. Calls follow the shape of the dose curve; as a rule, active = well fitted inhibition curve with a large enough effect; inconclusive = small, poorly fitted or top-dose-only effect; inactive = no such curve, though single readings can be large or run the other way. Potencies beside an inconclusive call are fits to weak or partial responses and may not hold up.
# Biological target: Flap endonuclease 1 (Homo sapiens) (UniProt P39748)
# Chain of UniProt P39748 (P39748 whole entry, looked up): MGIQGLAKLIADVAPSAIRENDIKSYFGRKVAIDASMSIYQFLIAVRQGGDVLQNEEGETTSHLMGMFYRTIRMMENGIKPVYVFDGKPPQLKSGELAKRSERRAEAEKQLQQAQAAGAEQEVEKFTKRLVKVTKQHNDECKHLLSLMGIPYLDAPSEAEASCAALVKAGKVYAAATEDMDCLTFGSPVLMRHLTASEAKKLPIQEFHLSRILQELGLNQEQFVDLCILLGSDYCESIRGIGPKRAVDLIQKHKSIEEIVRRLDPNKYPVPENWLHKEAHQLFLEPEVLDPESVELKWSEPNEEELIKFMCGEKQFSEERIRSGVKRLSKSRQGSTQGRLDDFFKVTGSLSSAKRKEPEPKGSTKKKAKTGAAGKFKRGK
# Test: qHTS Assay for the Inhibitors of Human Flap endonuclease 1 (FEN1). Also: nearly all actives have a fitted effect of over 65% in size.
# Details: Recombinant FEN1 flap cleavage, fluorescence, 15 min; series mostly up to 114 µM
# Summary of the method: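 Reaction started by adding substrate (50 nM final) to 10 nM enzyme after 15 min room-temperature compound preincubation. Reads at 0 and 15 min, with data normalized and fitted to a four-parameter Hill equation.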
# Potency is read from the fitted curve at half-maximal effect; tags tell the direction and shape of the fitted curve.
row,SMILES,Potency
1,C[n+]1ccc(/C=C/c2ccc([N+](C)(C)C)cc2)c2ccccc21,active: 22.4 µM
2,Cc1cc(O)ccc1N=Cc1c(C(F)(F)F)[nH][nH]c1=O,"inconclusive: 35.5 µM [inhibitor, partial curve, poor fit]"
3,CCN(CC)C(=O)CSC(Nc1cccc(F)c1)=C(C#N)C#N,inactive
4,COc1ccc(Cc2nc(C(=O)Nc3ccc(Cl)cc3)cs2)cc1,inactive
5,O=[N+]([O-])c1cccc(S(=O)(=O)Nc2nc3ccccc3nc2Nc2cccc(S(=O)(=O)N3CCCCC3)c2)c1,"inconclusive: 89.1 µM [inhibitor, single point]"
6,COc1ccc(-n2c(NC(=O)c3ccco3)c(C#N)c3nc4ccccc4nc32)cc1,"inconclusive: 56.2 µM [inhibitor, partial curve]"
7,O=C(O)c1ccc(-c2ccc(/C=C3\NC(=O)N(Cc4ccc(Cl)cc4)C3=O)o2)cc1Cl,active: 28.2 µM
8,CCOC(=O)c1ccccc1NC(=O)NCc1c(-n2cccc2)sc2c1CCCC2,inactive
9,COc1ccc(-c2cn3cc(Cl)ccc3n2)cc1OC,"inconclusive: 56.2 µM [inhibitor, partial curve, poor fit]"
10,CCOC(=O)C1=C(CSc2nc(-c3ccccc3)ccc2C#N)OC(N)=C(C#N)C1c1ccc(OC)cc1 (stereo not given),"inconclusive: 100 µM [inhibitor, single point]"
11,CCn1c(=O)n(CC)c2cc(N3CCCC3)c(NC(=O)c3cc(Cl)ccc3OC)cc21,"inconclusive: 79.4 µM [inhibitor, partial curve, poor fit]"
12,N#C/C(=C\c1cccs1)C(=O)c1ccccc1Cl,"inconclusive: 89.1 µM [inhibitor, single point]"
13,O=[N+]([O-])c1cc(Br)c(O)c(/C=N/Nc2nnnn2-c2cccc3ccccc23)c1,"inconclusive: 79.4 µM [inhibitor, partial curve]"
14,CCOc1cc(C2NC(=O)NC(C)=C2C(C)=O)cc(Cl)c1OCC(=O)O (stereo not given),inactive
15,Cc1ccc(S(=O)(=O)CC(=O)NC2CC2)cc1,"inconclusive: 25.1 µM [inhibitor, single point]"
16,O=C(N[C@@H]1c2ccccc2CC[C@@H]1OCc1ccccc1)c1ccc(C(F)(F)F)cc1,inactive
17,O=C(NCCCN1CCOCC1)c1cc2c([nH]c3ccccc32)c(-c2cccc(Br)c2)n1,"inconclusive: 17.8 µM [inhibitor, full curve, poor fit]"
18,O=c1c([N+](=O)[O-])c(O)c2ccccc2n1Cc1ccccc1,active: 11.2 µM
19,CCC(C)CCCCCCCCCCC(=O)O (stereo not given),"inconclusive: 28.2 µM [inhibitor, full curve, poor fit]"
20,Cc1c(Br)c(O)c(Br)c(O)c1/C=N/n1c(-c2ccccc2)n[nH]c1=S,active: 35.5 µM
21,CCn1c(N)c(C(=O)NC)sc1=S,inactive
22,COCCNC(=S)N(CCc1c(C)[nH]c2ccc(C)cc12)Cc1ccco1,"inconclusive: 89.1 µM [inhibitor, partial curve, poor fit]"
23,COc1ccc(Cl)cc1NC(=O)c1cccc(S(=O)(=O)Nc2c(C)n(C)n(-c3ccccc3)c2=O)c1,"inconclusive: 89.1 µM [inhibitor, single point]"
24,O=C(/C=C/c1ccco1)NCc1ccc(F)cc1,inactive

row,SMILES,Potency
1,NC(=S)n1[nH]c(-c2ccc([N+](=O)[O-])cc2)c(N=Nc2ccccc2[N+](=O)[O-])c1=O,inactive
2,COc1ccc(CCn2c(C)nc3c(c(=O)c4ccccc4n3C)c2=O)cc1,active: 50.1 µM
3,CN(C=[N+](C)C)c1cccc2c1C(=O)c1ccccc1C2=O,"inconclusive: 89.1 µM [inhibitor, partial curve, poor fit]"
4,COc1cc(N)c(N)cc1OC,"inconclusive: 3.98 µM [inhibitor, full curve, poor fit]"
5,CCCc1cc(=O)[nH]c(SCC(=O)N2CCCC2=O)n1,inactive
6,COc1cccc(OCC(O)CN2CCN(C(c3ccccc3)c3ccccc3)CC2)c1 (stereo not given),"inconclusive: 79.4 µM [inhibitor, single point]"
7,Cc1ccc(Nc2nc(-c3ccccc3)nc3ccccc23)cc1,"inconclusive: 17.8 µM [inhibitor, partial curve, poor fit]"
8,O=Cc1ccc(O)cc1,inactive
9,CC(=O)c1ccc(N(C(=O)Cc2c[nH]c3ccccc23)C(C(=O)NC2CCCCC2)c2cccs2)cc1 (stereo not given),"inconclusive: 89.1 µM [inhibitor, partial curve, poor fit]"
10,O=C(Nc1ccc(Cl)cc1)Nc1cc(S(=O)(=O)N2CCOCC2)ccc1N1CCCC1,inactive
11,C=CCNc1oc(-c2ccc(-c3ccccc3)cc2)nc1C#N,"inconclusive: 50.1 µM [inhibitor, partial curve, poor fit]"
12,Clc1cccc[n+]1CCCC[n+]1ccccc1Cl,active: 79.4 µM
13,Cc1sc2nc(CN3CCCCC3)nc(Nc3ccc4c(c3)OCCO4)c2c1C,inactive
14,COc1cccc2sc(N(CCCN(C)C)C(=O)CCS(=O)(=O)c3ccccc3)nc12,"inconclusive: 39.8 µM [inhibitor, single point]"
15,COc1ccc2ccc(O)c(CN(C)CC(=O)Nc3ccccc3C(F)(F)F)c2c1,"inconclusive: 56.2 µM [inhibitor, partial curve, poor fit]"
16,CC(=O)NC1C(=O)N(CCN2CCOCC2)c2ccc(C)cc21 (stereo not given),"inconclusive: 10 µM [inhibitor, partial curve, poor fit]"
17,COc1ccc(S(=O)(=O)N(CCc2ccccc2)CC(=O)N/N=C/c2ccc3c(c2)OCO3)cc1,"inconclusive: 79.4 µM [inhibitor, partial curve]"
18,FC(F)(F)c1nc2ccccc2n1CCNc1nc(CN2CCCCC2)cs1,"inconclusive: 50.1 µM [inhibitor, partial curve, poor fit]"
19,COc1ccccc1NC(=O)N1CC(=O)Nc2sc3c(c2C1c1ccccc1)CCCC3 (stereo not given),inactive
20,C[C@@H]1Cc2c(O)c(O)cc(O)c2C(=O)O1,active: 56.2 µM
21,COC(C)(C)[C@H](O)COc1c2ccoc2cc2oc(=O)ccc12,inactive
22,CCc1nc2sc3ccccc3c(=O)c2c(=O)n1Cc1ccco1,"inconclusive: 56.2 µM [inhibitor, partial curve]"
23,COc1cc(/C=C/C(=O)c2ccc(NS(=O)(=O)c3ccc(C)cc3)cc2)cc(OC)c1O,"inconclusive: 31.6 µM [inhibitor, full curve]"
24,Cc1ccc(S(=O)(=O)N2[C@@H](c3ccc(C(C)(C)C)cc3)C(C(=O)O)=CC[C@H]2c2ccc(C(C)C)cc2)cc1,"inconclusive: 50.1 µM [inhibitor, partial curve]"

row,SMILES,Potency
1,CCc1ccc(S(=O)(=O)c2nnn3c2nc(NCCc2ccccc2)c2sccc23)cc1,inactive
2,O=C(Nc1nnc(SCc2c(Cl)cccc2Cl)s1)C1CC(=O)N(c2ccc3c(c2)OCCO3)C1 (stereo not given),inactive
3,COc1cc(C)c(C(=O)CC(=O)c2c(C)cc(OC)cc2C)c(C)c1,inactive
4,CC(C)(C)C1=Nn2c(nnc2-c2n[nH]c3c2CCC3)SC1,inactive
5,C=CCOC(=O)C1=C(C)OC(N)=C(C#N)C1c1c(C)nn(-c2ccccc2)c1Cl (stereo not given),"inconclusive: 31.6 µM [inhibitor, partial curve, poor fit]"
6,Cc1ccc(-c2cccc(C(=O)NCCc3ccccc3)n2)c2ccccc12,"inconclusive: 39.8 µM [inhibitor, partial curve, poor fit]"
7,CCOC(=O)c1c(NC(C)=O)sc2c(OCCN(CC)CC)c(Br)ccc12,"inconclusive: 12.6 µM [inhibitor, full curve]"
8,S=c1[nH]nc(Nc2ccc(Cl)cc2)s1,inactive
9,O=C(COC(=O)CCS(=O)(=O)c1ccc(Cl)cc1)NC1CCCCC1,"inconclusive: 89.1 µM [inhibitor, partial curve, poor fit]"
10,Cc1[nH]n(-c2ccccc2)c(=O)c1/C=C1\C=NN=C1c1ccccc1,"inconclusive: 79.4 µM [inhibitor, partial curve, poor fit]"
11,CC(=O)Nc1c(C)nn(-c2ccccc2)c1N1CCC(C(=O)NCc2ccc(Cl)cc2)CC1,inactive
12,Cc1cc(C)cc(N2CC(c3nc(-c4ccccc4C)no3)CC2=O)c1 (stereo not given),inactive
13,COC(=O)c1ccc(COc2ccccc2/C=C/C(=O)c2ccc(OCC(=O)O)cc2)cc1,"inconclusive: 100 µM [inhibitor, single point]"
14,COCc1cc(CN2CCCC2)c(O)c2ncccc12,"inconclusive: 50.1 µM [inhibitor, partial curve]"
15,COc1ccc(-c2nc(=N)sn2-c2ccccc2)cc1,"inconclusive: 89.1 µM [inhibitor, single point]"
16,Clc1nssc1=Nc1nncs1,"inconclusive: 89.1 µM [inhibitor, single point]"
17,O=c1c2ccccc2[nH]c2ccc(O)cc12,"inconclusive: 56.2 µM [inhibitor, partial curve, poor fit]"
18,COc1cc(CNCc2ccc(OC)c3ccccc23)cc(OC)c1OC,"inconclusive: 89.1 µM [inhibitor, single point]"
19,O=c1cc(-c2ccccc2)[nH]n1-c1ccccc1,"inconclusive: 89.1 µM [inhibitor, partial curve, poor fit]"
20,CCOC(=O)c1cccc(NC(=O)CSc2ncc3c(n2)-c2ccccc2N(C)S3(=O)=O)c1,inactive
21,COc1ccc(C2=CC3=C(Br)C(=O)C(C)(OC(=O)c4ccco4)C(=O)C3=CO2)cc1 (stereo not given),active: 39.8 µM
22,O=C1CC(c2nc3ccccc3n2CCCCOc2ccccc2)CN1c1ccccc1Cl (stereo not given),inactive
